Source: patent US20240190987A1, “Engineered EpCam Binding Antibodies” (TigaTX, priority 2021, published 2024)

Legend:
[1] = tested on: human T-cells with AEKO target cells; assay: T-cell activation (CD69) in co-culture with AEKO; type: cell-based; details: up to 1 nM, 69 hours
Protocol: The HCT-116, AEKO and AEPO cell lines described above were used as target cells in a TDCC co-culture assay with Ab1070 (FIG. 35). […] EpCAM structure-activity relationship (SAR) campaign
Co-culture assays were used to assess T-cell activation (CD69 upregulation), cytokine production or T-cell-dependent cellular cytotoxicity (TDCC) of target cells. Flat-bottom 96-well plates were seeded with 5,000 target cells in complete growth media (DMEM+10% FBS+1% penicillin/streptomycin) 16-24 hrs before the assay. Antibody drugs were added in 10 μL growth media and incubated for at least 10 min at 37° C. Indinavir or vehicle control was added in 10 μL growth media. […] While T cells were being processed, target cells were incubated with CellTiter-Glo 2.0 (Promega, Madison, WI) for 15 min at room temperature with shaking then read for luciferase light emission on a GloMax Explorer plate reader using default settings. Specific Cytotoxicity (%) was calculated from the relative luminescence unit values (RLU) using the formula: [1−(experimental RLU/vehicle-treated RLU))×100]. The frequency of CD69+ T-cells (%) was calculated as the percentage of CD69-positive events within the CF405M-negative population. Dose-response curves and EC50 values were calculated in GraphPad Prism 9 software (GraphPad Software San Diego, CA).

AEPO cells = assay: Surface staining of AEPO tumor cells by flow cytometry; type: cell-based, human; details: […]-1 μM
Protocol: Surface binding was measured on an isogenic panel of EpCAM-knockout and EpCAM-overexpressing cell lines derived from A-431, a human epidermoid carcinoma cell line (FIG. 34). AEKO and AEPO are isogenic control cell lines in which there is zero EpCAM expression (AEKO) or high EpCAM expression (AEKO-E4). AEKO is a commercially available subclone of A-431 in which human EpCAM expression is “knocked out” (disrupted) by a frameshift mutation (catalog number ab261902; Abcam, Cambridge, UK). AEPO was developed using the AEKO cell line as a starting point and restoring expression of human EpCAM by transducing with a lentiviral vector containing human EpCAM downstream of an EF1α promoter. Cells were stained with Ab1070, a conventional TCE containing the M37-H6L2 variant of the M37 clone, at a range of concentrations from 0.015 nM-1 μM.
A single-cell suspension of adherent tumor cell lines was obtained by incubating 5 minutes with TrypLE Express (Gibco, Waltham, MA) and quenching with growth media (DMEM+10% FBS+1% penicillin/streptomycin), centrifuging at 400 rcf×5 minutes, aspirating the supernatant, and resuspending the cell pellet in CSM (AutoMACS Running Buffer, Miltenyi Biotec, Bergisch Gladbach, Germany). […]

B1: Ab1070: conventional TCE containing the M37-H6L2 variant of the M37 clone (antibody)
heavy 1: EVQLVESGGGLVQPGGSLRLSCAASGFTFNTYAMNWVRQAPGKGLEWVARIRSKYNNYATYYADSVKGRFTISRDDSKSILYLQMNSLRAEDTAVYYCVRHGNFGNSYVSWFAYWGQGTLVTVSSGGGGSGGGGSGGGGSDIQVTQSPSSLSASVGDRVTITCRSSTGAVTTSNYANWVQQKPGKAFKGLIGGTNKLAPGVPSRFSGSLSGDDATLTISSLQPEDFATYYCALWYSNLWVFGQGTKLEIKGGGGS[human IgG1 Fc with changes left out]
heavy 2: EVQLVESGGGLVQPGGSLRLSCAASGFTFSNYWMNWVRQAPGKGLEWVAQIRVKSENFATHYADSVKGRFTISRDDSKSTVYLQMNSLRAEDTAVYYCTLYDGFSWGQGTLVTVSSASTKGPSVFPLAPSSKSTSGGTAALGCLVKDYFPEPVTVSWNSGALTSGVHTFPAVLQSSGLYSLSSVVTVPSSSLGTQTYICNVNHKPSNTKVDKKV[human IgG1 Fc with changes left out]
light: DIQMTQSPSSLSASVGDRVTITCSASSSVSSGNFHWYQQKPGKAPKLLIYRTSNLASGVPSRFSGSGSGTDYTLTISSLQPEDFATYYCQQWSGYPYTFGQGTKVEIKRTVAAPSVFIFPPSDEQLKSGTASVVCLLNNFYPREAKVQWKVDNALQSGNSQESVTEQDSKDSTYSLSSTLTLSKADYEKHKVYACEVTHQGLSSPVTKSFNRGEC
modifications: REGION 1..482: note = Ab1070 Knob HC; REGION 1..446: note = Ab1070 Hole HC; REGION 1..215: note = Ab1070 Hole LC
notes: conventional TCE containing the M37-H6L2 variant of the M37 clone
[1]
  T-cell activation (CD69 upregulation) with AEKO: did not induce T-cell activation
AEPO cells
  surface binding to EpCAM-overexpressing AEPO (AEKO-E4) cells: Surface binding was observed
